# The list shows a part of the results. The full chains were built here from the parent and the listed change. Inactive controls read about 0.05.
# B1: TEV protease; numbered along this chain (parent)
# chain: MGESLFKGPRDYNPISSSICHLTNESDGHTTSLYGIGFGPFIITNKHLFRRNNGTLVVQSLHGVFKVKDTTTLQQHLVDGRDMIIIRMPKDFPPFPQKLKFREPQREERICLVTTNFQTKSMSSMVSDTSCTFPSGDGIFWKHWIQTKDGQCGSPLVSTRDGFIVGIHSASNFTNTNNYFTSVPKNFMELLTNQEAQQWVSGWRLNADSVLWGGHKVFMVKPEEPFQPVKEATQL
# Variants of: B1
# Assay: raw area under fraction-flipped curve 0-4 h after induction (AUC4h, not background-subtracted), DNA-recorder readout of cleavage of the substrate (dimensionless); higher = more cleavage of the substrate by the protease variant
# Conditions: temperature: 34 °C; time window: 0-4 h after rhamnose induction
# Description: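 In vivo DNA recorder in E. coli TOP10(DE3) ΔrhaA at 34 °C. Each TEVp single-site mutant (parent TEVp 0) is paired with a single-site variant of the 7-mer TEVs (canonical ENLYFQ|S). The substrate sits between flexible linkers in a Bxb1-sfGFP-TEVs-SsrA fusion, so cleavage stabilises Bxb1 and speeds flipping of a recombination array, read by NGS. The value is the raw area under the fraction-flipped curve over 0-4 h after rhamnose induction (AUC4h), with ≥20 reads per time point. It is not background-subtracted; inactive controls average about 0.047.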
# 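Also: Bxb1 expression induced with 0.2% (w/v) L-rhamnose at OD600 near 0.5, cultures sampled hourly, flipped fraction per protease–substrate barcode pair counted by paired-end Illumina sequencing.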
variant,measurement,value
MGESLFKGPRDYNPISSSICHLTNESDGHTTSLYGIGFGPFIITNKHLFRRNNGTLVVQSLHGVFKVKDTTTLQQHLQDGRDMIIIRMPKDFPPFPQKLKFREPQREERICLVTTNFQTKSMSSMVSDTSCTFPSGDGIFWKHWIQTKDGQCGSPLVSTRDGFIVGIHSASNFTNTNNYFTSVPKNFMELLTNQEAQQWVSGWRLNADSVLWGGHKVFMVKPEEPFQPVKEATQL [V78Q],area with substrate ECLYFQS,0.0753
same,area with substrate EQLYFQS,0.0617
MGESLFKGPRDYNPISSSICHLTNESDGHTTSLYGIGFGPFIITNKHLFRRNNGTLVVQSLHGVFKVKDTTTLQQHLVDGRDMIIIRMPKDFPHFPQKLKFREPQREERICLVTTNFQTKSMSSMVSDTSCTFPSGDGIFWKHWIQTKDGQCGSPLVSTRDGFIVGIHSASNFTNTNNYFTSVPKNFMELLTNQEAQQWVSGWRLNADSVLWGGHKVFMVKPEEPFQPVKEATQL [P94H],area with substrate ECLYFQS,0.0849
same,area with substrate EGLYFQS,0.106
same,area with substrate EHLYFQS,0.0856
same,area with substrate EKLYFQS,0.126
same,area with substrate EPLYFQS,0.12
same,area with substrate ESLYFQS,0.107
same,area with substrate ETLYFQS,0.11
same,area with substrate EYLYFQS,0.106
MGESLFKGPRDYNPISSSICHLTNESDGHTTSLYGIGFGPFIITNKHLFRRNNGTLVVQSLHGVFKVKDTTTLQQHLVDGRDMIIIRMPKDMPPFPQKLKFREPQREERICLVTTNFQTKSMSSMVSDTSCTFPSGDGIFWKHWIQTKDGQCGSPLVSTRDGFIVGIHSASNFTNTNNYFTSVPKNFMELLTNQEAQQWVSGWRLNADSVLWGGHKVFMVKPEEPFQPVKEATQL [F92M],area with substrate ECLYFQS,0.06
same,area with substrate EILYFQS,0.1
same,area with substrate ERLYFQS,0.109
same,area with substrate ESLYFQS,0.132
same,area with substrate EWLYFQS,0.153
MGESLFKGPRDYNPISSSICHLTNESDGHTTSLYGIGFGPFIITNKHLFRRNNGTLVVQSLHGVFKVKDTTTLQQHLVDGRDMIIIRMPKDSPPFPQKLKFREPQREERICLVTTNFQTKSMSSMVSDTSCTFPSGDGIFWKHWIQTKDGQCGSPLVSTRDGFIVGIHSASNFTNTNNYFTSVPKNFMELLTNQEAQQWVSGWRLNADSVLWGGHKVFMVKPEEPFQPVKEATQL [F92S],area with substrate ECLYFQS,0.0863
same,area with substrate EDLYFQS,0.132
same,area with substrate EFLYFQS,0.0965
same,area with substrate EGLYFQS,0.0891
same,area with substrate EHLYFQS,0.0929
same,area with substrate EILYFQS,0.0801
same,area with substrate EKLYFQS,0.0686
same,area with substrate EPLYFQS,0.0907
same,area with substrate EQLYFQS,0.103
same,area with substrate ESLYFQS,0.0833
same,area with substrate EVLYFQS,0.0848
MGESLFKGPRDYNPISSSICHLTNESDGHTTSLYGIGFGPFIITNKHLFRRNNGTLVVQSLHGVFKVKDTTTLQQHLVDGRDMIIIRMPKDQPPFPQKLKFREPQREERICLVTTNFQTKSMSSMVSDTSCTFPSGDGIFWKHWIQTKDGQCGSPLVSTRDGFIVGIHSASNFTNTNNYFTSVPKNFMELLTNQEAQQWVSGWRLNADSVLWGGHKVFMVKPEEPFQPVKEATQL [F92Q],area with substrate ECLYFQS,0.114
same,area with substrate EDLYFQS,0.13
same,area with substrate EFLYFQS,0.104
same,area with substrate EHLYFQS,0.112
same,area with substrate EKLYFQS,0.0861
same,area with substrate ELLYFQS,0.07
same,area with substrate EMLYFQS,0.116
same,area with substrate EPLYFQS,0.102
same,area with substrate ERLYFQS,0.109
same,area with substrate ESLYFQS,0.101
same,area with substrate EVLYFQS,0.091
same,area with substrate EWLYFQS,0.0978
MGESLFKGPRDYNPISSSICHLTNESDGHTTSLYGIGFGPFIITNKHLFRRNNGTLVVQSLHGVFKVKDTTTMQQHLVDGRDMIIIRMPKDFPPFPQKLKFREPQREERICLVTTNFQTKSMSSMVSDTSCTFPSGDGIFWKHWIQTKDGQCGSPLVSTRDGFIVGIHSASNFTNTNNYFTSVPKNFMELLTNQEAQQWVSGWRLNADSVLWGGHKVFMVKPEEPFQPVKEATQL [L73M],area with substrate ECLYFQS,0.123
same,area with substrate EDLYFQS,0.0942
same,area with substrate EELYFQS,0.101
same,area with substrate EFLYFQS,0.0784
same,area with substrate EKLYFQS,0.103
same,area with substrate ELLYFQS,0.0708
same,area with substrate EMLYFQS,0.0681
same,area with substrate EPLYFQS,0.0508
same,area with substrate ERLYFQS,0.0752
same,area with substrate ESLYFQS,0.0768
same,area with substrate ETLYFQS,0.108
MGESLFKGPRDYNPISSSICHLTNESDGHTTSLYGIGFGPFIITNKHLFRRNNGTLVVQSLHGVFKVKDTTTLTQHLVDGRDMIIIRMPKDFPPFPQKLKFREPQREERICLVTTNFQTKSMSSMVSDTSCTFPSGDGIFWKHWIQTKDGQCGSPLVSTRDGFIVGIHSASNFTNTNNYFTSVPKNFMELLTNQEAQQWVSGWRLNADSVLWGGHKVFMVKPEEPFQPVKEATQL [Q74T],area with substrate ECLYFQS,0.0789
same,area with substrate EDLYFQS,0.104
same,area with substrate EHLYFQS,0.124
same,area with substrate EILYFQS,0.0381
same,area with substrate EKLYFQS,0.0676
same,area with substrate ELLYFQS,0.0766
same,area with substrate EMLYFQS,0.0838
same,area with substrate EQLYFQS,0.0725
same,area with substrate ERLYFQS,0.0575
same,area with substrate ESLYFQS,0.066
MGESLFKGPRDYNPISSSICHLTNESDGHTTSLYGIGFGPFIITNKHLFRRNNGTLVVQSLHGVFKVKDTTTLNQHLVDGRDMIIIRMPKDFPPFPQKLKFREPQREERICLVTTNFQTKSMSSMVSDTSCTFPSGDGIFWKHWIQTKDGQCGSPLVSTRDGFIVGIHSASNFTNTNNYFTSVPKNFMELLTNQEAQQWVSGWRLNADSVLWGGHKVFMVKPEEPFQPVKEATQL [Q74N],area with substrate ECLYFQS,0.119
same,area with substrate EELYFQS,0.126
same,area with substrate EILYFQS,0.115
same,area with substrate EKLYFQS,0.0953
same,area with substrate EMLYFQS,0.0422
same,area with substrate EPLYFQS,0.116
same,area with substrate EWLYFQS,0.137
MGESLFKGPRDYNPISSSICHLTNESDGHTTSLYGIGFGPFIITNKHLFRRNNGTLVVQSLHGVFKVKDTTWLQQHLVDGRDMIIIRMPKDFPPFPQKLKFREPQREERICLVTTNFQTKSMSSMVSDTSCTFPSGDGIFWKHWIQTKDGQCGSPLVSTRDGFIVGIHSASNFTNTNNYFTSVPKNFMELLTNQEAQQWVSGWRLNADSVLWGGHKVFMVKPEEPFQPVKEATQL [T72W],area with substrate ECLYFQS,0.0851
same,area with substrate EELYFQS,0.0853
same,area with substrate EHLYFQS,0.0547
same,area with substrate EILYFQS,0.071
same,area with substrate EKLYFQS,0.102
same,area with substrate ELLYFQS,0.0552
same,area with substrate EMLYFQS,0.0884
same,area with substrate EPLYFQS,0.109
same,area with substrate ERLYFQS,0.0832
same,area with substrate ESLYFQS,0.0673
same,area with substrate EVLYFQS,0.0603
same,area with substrate EYLYFQS,0.0556
MGESLFKGPRDYNPISSSICHLTNESDGHTTSLYGIGFGPFIITNKHLFRRNNGTLVVQSLHGVFKVKDTTTLQQHLVDGRDMIIIRMRKDFPPFPQKLKFREPQREERICLVTTNFQTKSMSSMVSDTSCTFPSGDGIFWKHWIQTKDGQCGSPLVSTRDGFIVGIHSASNFTNTNNYFTSVPKNFMELLTNQEAQQWVSGWRLNADSVLWGGHKVFMVKPEEPFQPVKEATQL [P89R],area with substrate ECLYFQS,0.074
same,area with substrate EELYFQS,0.101
same,area with substrate EGLYFQS,0.0635
same,area with substrate EILYFQS,0.0595
same,area with substrate EKLYFQS,0.0986
same,area with substrate EPLYFQS,0.0838
same,area with substrate EQLYFQS,0.092
same,area with substrate ERLYFQS,0.0725
same,area with substrate ESLYFQS,0.0666
same,area with substrate EVLYFQS,0.0736
same,area with substrate EWLYFQS,0.0641
MGESLFKGPRDYNPISSSICHLTNESDGHTTSLYGIGFGPFIITNKHLFRRNNGTLVVQSLHGVFKVKDTTTLQQHLVDGRDMIIIRMTKDFPPFPQKLKFREPQREERICLVTTNFQTKSMSSMVSDTSCTFPSGDGIFWKHWIQTKDGQCGSPLVSTRDGFIVGIHSASNFTNTNNYFTSVPKNFMELLTNQEAQQWVSGWRLNADSVLWGGHKVFMVKPEEPFQPVKEATQL [P89T],area with substrate ECLYFQS,0.101
same,area with substrate EDLYFQS,0.0888
same,area with substrate EFLYFQS,0.0987
same,area with substrate EGLYFQS,0.0798
same,area with substrate EMLYFQS,0.0818
same,area with substrate ERLYFQS,0.0846
same,area with substrate ESLYFQS,0.0836
same,area with substrate ETLYFQS,0.0808
same,area with substrate EVLYFQS,0.0744

# Source: the supplement of paper PMC12217912
